In the supplement of paper PMC9046079:
Structures can show the parent of a compound that is named as a salt. ± gives the standard deviation of the averaged measurements. The list shows a part of the results.

Legend:
[1] = test system: murine small intestinal organoids (ENR+CD Paneth differentiation); assay: cellular ATP (CellTiter-Glo 3D) relative to plate median (log10 fold change); higher = more viable cells; conditions: 6 d
[2] = test system: murine small intestinal organoids (ENR+CD Paneth differentiation); assay: carbachol-stimulated secreted lysozyme activity relative to plate median (log10 fold change); higher = more Paneth cell lysozyme secretion; conditions: 6 d, carbachol 10 µM
[3] = test system: murine small intestinal organoids (ENR+CD Paneth differentiation); assay: basal (non-stimulated) secreted lysozyme activity relative to plate median (log10 fold change); higher = more Paneth cell lysozyme secretion; conditions: 6 d
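Wherever basal (non-stimulated) secreted lysozyme activity relative to plate median is given: ISC-enriched organoid precursors grown as 2.5D pseudo-monolayer on Matrigel, compound given on day 0 and day 3, plate values LOESS-normalized before median fold change, three murine donors.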
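Wherever cellular ATP (CellTiter-Glo 3D) relative to plate median is given: 2.5D pseudo-monolayer culture of ISC-enriched organoids partly embedded atop Matrigel, compound added on day 0 and again on day 3, per-plate LOESS correction before median fold change.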

| Compound | cellular ATP (log10) ([1]; 0.08 µM) | cellular ATP (log10) ([1]; 0.4 µM) | cellular ATP (log10) ([1]; 2 µM) | cellular ATP (log10) ([1]; 10 µM) | carbachol-stimulated secreted lysozyme activity (log10) ([2]; 0.08 µM) | carbachol-stimulated secreted lysozyme activity (log10) ([2]; 0.4 µM) | carbachol-stimulated secreted lysozyme activity (log10) ([2]; 2 µM) | carbachol-stimulated secreted lysozyme activity (log10) ([2]; 10 µM) | basal (log10) ([3]; 0.08 µM) | basal (log10) ([3]; 0.4 µM) | basal (log10) ([3]; 2 µM) | basal (log10) ([3]; 10 µM) |
| --- | --- | --- | --- | --- | --- | --- | --- | --- | --- | --- | --- | --- |
| CN1CCC(CNc2ccc3ncc(-c4cccc(OC(F)(F)F)c4)n3n2)CC1 [SGI-1776 free base] | -0.396 ± 1.1 | 0.0712 ± 0.37 | 0.132 ± 0.15 | -0.477 ± 0.43 | -0.166 ± 0.42 | 0.017 ± 0.041 | 0.0974 ± 0.048 | -0.164 ± 0.19 | 0.000245 ± 0.18 | 0.0418 ± 0.096 | 0.0541 ± 0.013 | -0.138 ± 0.12 |
| Cc1cccc(CC(=O)N2CCc3c2ccc(-c2cn(C)c4ncnc(N)c24)c3F)n1 | 0.0678 ± 0.12 | 0.115 ± 0.074 | 0.0825 ± 0.15 | 0.119 ± 0.1 | -0.00469 ± 0.11 | 0.115 ± 0.26 | 0.0377 ± 0.06 | 0.175 ± 0.36 | -0.0306 ± 0.059 | -0.0455 ± 0.027 | -0.0335 ± 0.093 | -0.0118 ± 0.09 |
| CCC(CC)(NC(=O)C(C)C)C(=O)N[C@@H](CCCN=C(N)N)C(=O)NC1(C(=O)NC(c2ccc(F)cc2)c2ccc(F)cc2)CCCC1 | -0.205 ± 0.26 | -0.132 ± 0.029 | -0.233 ± 0.018 | -0.403 ± 0.11 | -0.00619 ± 0.14 | 0.0142 ± 0.0049 | 0.000103 ± 0.065 | -0.198 ± 0.2 | -0.0252 ± 0.04 | -0.0104 ± 0.062 | 0.0264 ± 0.15 | -0.164 ± 0.15 |
| NC(=O)c1ccc(I)c([N+](=O)[O-])c1 [Iniparib (BSI-201)] | 0.339 ± 0.22 | 0.181 ± 0.36 | 0.157 ± 0.16 | 0.244 ± 0.17 | -0.0178 ± 0.15 | 0.0365 ± 0.071 | -0.0397 ± 0.088 | -0.00295 ± 0.051 | 0.0418 ± 0.046 | 0.000353 ± 0.081 | 0.0158 ± 0.087 | -0.016 ± 0.018 |
| NC(=O)c1cccc(-c2cccc(OC(=O)NC3CCCCC3)c2)c1 | 0.303 ± 0.25 | 0.0123 ± 0.27 | 0.0999 ± 0.17 | -0.228 ± 0.32 | 0.0157 ± 0.082 | 0.0578 ± 0.042 | 0.0597 ± 0.069 | -0.129 ± 0.19 | 0.0479 ± 0.069 | -0.0165 ± 0.08 | -0.00833 ± 0.09 | -0.077 ± 0.12 |
| OC(CNCC(O)C1CCc2cc(F)ccc2O1)C1CCc2cc(F)ccc2O1 (stereo unspecified) [Nebivolol] | 0.388 ± 0.2 | 0.22 ± 0.15 | 0.312 ± 0.035 | 0.209 ± 0.14 | 0.181 ± 0.25 | 0.323 ± 0.082 | 0.0593 ± 0.1 | 0.123 ± 0.13 | 0.175 ± 0.086 | 0.319 ± 0.28 | 0.11 ± 0.1 | 0.096 ± 0.047 |
| O=C(O)c1ccc(Nc2ncc3c(n2)-c2ccc(Cl)cc2C(c2c(F)cccc2F)=NC3)cc1 | 0.0264 ± 0.16 | 0.0139 ± 0.24 | -0.465 ± 0.32 | -0.498 ± 0.17 | 0.0924 ± 0.057 | 0.292 ± 0.025 | -0.119 ± 0.12 | -0.269 ± 0.026 | 0.0659 ± 0.038 | 0.00756 ± 0.063 | -0.0997 ± 0.081 | -0.112 ± 0.069 |
| COc1cc2c(cc1O)CC[C@@H]1[C@@H]2CC[C@]2(C)[C@@H](O)CC[C@@H]12 [2-Methoxyestradiol (2-MeOE2)] | 0.299 ± 0.55 | 0.401 ± 0.27 | 0.227 ± 0.33 | -0.672 ± 0.57 | 0.147 ± 0.11 | 0.179 ± 0.25 | -0.0427 ± 0.023 | -0.373 ± 0.029 | 0.0214 ± 0.21 | 0.065 ± 0.22 | 0.00472 ± 0.012 | -0.139 ± 0.11 |
| CC(C)(Cc1ccc2ccccc2c1)NC[C@@H](O)COc1cccc(Cl)c1C#N | 0.149 ± 0.27 | -0.195 ± 0.43 | -0.246 ± 0.35 | -0.118 ± 0.32 | 0.173 ± 0.13 | -0.0893 ± 0.038 | -0.159 ± 0.21 | -0.12 ± 0.14 | 0.162 ± 0.081 | -0.0478 ± 0.059 | -0.0774 ± 0.11 | -0.0686 ± 0.04 |
| COc1cc2nc(N3CCN(C(=O)C4COc5ccccc5O4)CC3)nc(N)c2cc1OC (stereo unspecified) [Doxazosin Mesylate] | 0.0716 ± 0.14 | -0.0154 ± 0.24 | 0.146 ± 0.11 | 0.0748 ± 0.11 | 0.123 ± 0.093 | 0.147 ± 0.18 | 0.0297 ± 0.0078 | -0.00315 ± 0.15 | 0.0728 ± 0.051 | 0.0445 ± 0.082 | 0.0474 ± 0.041 | 0.0391 ± 0.12 |
| CS(=O)(=O)c1ccc(-c2cnc(N)c(C(=O)Nc3ccccc3)n2)cc1 | 0.061 ± 0.59 | 0.119 ± 0.17 | -0.0831 ± 0.24 | -1.02 ± 0.084 | -0.201 ± 0.44 | 0.197 ± 0.11 | 0.0372 ± 0.028 | -0.464 ± 0.07 | -0.0105 ± 0.29 | 0.0737 ± 0.018 | 0.115 ± 0.15 | -0.275 ± 0.081 |
| O=C(Nc1cc(C(F)(F)F)ccc1N1CCCCC1)c1ccncc1 | 0.359 ± 0.45 | 0.497 ± 0.15 | 0.501 ± 0.25 | 0.567 ± 0.25 | 0.0365 ± 0.12 | 0.152 ± 0.048 | 0.134 ± 0.061 | 0.101 ± 0.08 | 0.0915 ± 0.15 | 0.0862 ± 0.029 | 0.104 ± 0.039 | 0.0639 ± 0.034 |
| COc1cc(OC)c(/C=C/S(=O)(=O)Cc2ccc(OC)c(NCC(=O)O)c2)c(OC)c1 | -1.06 ± 0.013 | -0.926 ± 0.82 | -0.99 ± 1 | -0.467 ± 0.46 | -0.398 ± 0.04 | -0.204 ± 0.33 | -0.276 ± 0.24 | -0.234 ± 0.23 | -0.233 ± 0.1 | -0.0935 ± 0.15 | -0.197 ± 0.094 | -0.16 ± 0.14 |
| Nc1cccc(-c2cc3c(Oc4cccc(O)c4)ncnc3[nH]2)c1 | 0.00284 ± 0.76 | 0.236 ± 0.3 | 0.0768 ± 0.047 | -0.967 ± 0.72 | -0.0993 ± 0.33 | 0.133 ± 0.21 | 0.0577 ± 0.044 | -0.191 ± 0.24 | -0.0178 ± 0.19 | 0.0933 ± 0.081 | 0.0408 ± 0.099 | -0.161 ± 0.16 |
| O=C(Nc1cccc(C(F)(F)F)c1)Nc1cc(S(=O)(=O)NC2CC2)ccc1-c1ccsc1 | 0.281 ± 0.15 | 0.231 ± 0.21 | 0.298 ± 0.14 | 0.107 ± 0.036 | 0.0428 ± 0.0069 | 0.114 ± 0.037 | -0.0173 ± 0.13 | -0.0776 ± 0.047 | 0.0686 ± 0.058 | 0.0308 ± 0.049 | 0.0429 ± 0.068 | -0.0901 ± 0.025 |
| COc1ccc2cc(-c3nc(-c4ccc([S+](C)[O-])cc4)[nH]c3-c3ccncc3)ccc2c1 (stereo unspecified) [Tie2 kinase inhibitor] | -0.11 ± 0.29 | 0.102 ± 0.078 | -0.128 ± 0.4 | -0.421 ± 0.81 | 0.0238 ± 0.047 | -0.0283 ± 0.0022 | -0.0149 ± 0.021 | -0.128 ± 0.18 | 0.0383 ± 0.064 | -0.00717 ± 0.014 | 0.0107 ± 0.031 | -0.055 ± 0.078 |
| CC(Oc1cc(-c2cnn(C3CCNCC3)c2)cnc1N)c1c(Cl)ccc(F)c1Cl [(S)-crizotinib] | 0.241 ± 0.15 | 0.0544 ± 0.086 | 0.112 ± 0.23 | 0.0194 ± 0.41 | 0.151 ± 0.012 | 0.007 ± 0.15 | -0.103 ± 0.071 | -0.163 ± 0.17 | 0.193 ± 0.17 | 0.00932 ± 0.021 | -0.0338 ± 0.09 | -0.0676 ± 0.097 |
| CC1=NN(c2ccc(C(=O)O)cc2)C(=O)C1=Cc1ccc(-c2cc(C)c(C)cc2[N+](=O)[O-])o1 | 0.346 ± 0.087 | 0.119 ± 0.31 | 0.00959 ± 0.33 | 0.0466 ± 0.28 | 0.0689 ± 0.0082 | 0.0648 ± 0.056 | 0.115 ± 0.086 | 0.122 ± 0.049 | 0.0565 ± 0.026 | 0.089 ± 0.13 | 0.16 ± 0.095 | 0.0536 ± 0.043 |
